{"source": "patent US9868789B2", "about": "“Synergistic combinations of OX40L antibodies for the treatment of GvHD” (Kymab Limited, priority 2015, dated 2018)", "molecules": {"B1": {"name": "19H01 (hybridoma): murine/human chimeric anti-hOX40L antibody from hybridoma; VH SEQ ID No:94, VL SEQ ID No:108 (antibody, listed as Homo Sapiens, V domains shown)", "VH": "[about 100 residues not spelt out]DFLWFGEFPFDYWGQGTLVTVSS", "VL": "DIQMTQSPSSLSASVGDRVTITCRASQGISNYLAWYQQKPGKIPKLLIYAASTLQSGVPSRFSGSGSGTDFTLTISSLQPEDVATYYCQKYNSAPRTFGQGTKVEIK"}}, "biological_target": "T1, CHO-S expressed hOX40L (Homo sapiens, UniProt P23510)", "T1 construct": "expressed in transfected cells", "T1 sequence (P23510 1-183)": "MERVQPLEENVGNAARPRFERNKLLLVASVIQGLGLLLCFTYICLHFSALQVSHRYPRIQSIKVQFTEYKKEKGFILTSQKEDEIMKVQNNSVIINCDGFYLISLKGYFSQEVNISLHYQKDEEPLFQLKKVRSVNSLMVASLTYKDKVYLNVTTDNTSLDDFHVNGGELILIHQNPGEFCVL", "assay": "FACS binding to CHO-S expressed hOX40L", "settings": "binding to hOX40L expressed on CHO-S cells; YES", "procedure": "CHO-S cells expressing hOX40L or untransfected CHO-S cells, diluted in FACS buffer (PBS+1% w/v BSA+0.1% w/v NaN3) were distributed to a 96 well V-bottom plate (Greiner) at a density of 1×10^5 cells per well. Cells were washed with 150 μL of PBS and centrifuged at 300×g for 3 min. Supernatant was aspirated and 150 μL of PBS added. This wash step was repeated.\n25 μL of hybridoma supernatant or purified antibody from hybridoma supernatant diluted in FACS buffer was added to the washed cells and incubated for 10-15 minutes. Reference Antibody or mouse IgG1 control antibody (Sigma) were diluted in FACS buffer to 20 μg/mL and 25 μL added to cells. 25 μL of human OX40R Fc (in-house) diluted to 1000 ng/mL in FACS buffer were then added to wells. Cells were incubated at 4° C. for 30 minutes. […]\nTo fix cells 100 μL 2% v/v paraformaldehyde was added and cells incubated for 30 minutes at 4° C., cells were pelleted by centrifugation 300×g and the plates and resuspended in 50 μL of FACS buffer. PE and APC signal intensity (geomean) was measured by flow cytometry using a BD FACS Array instrument.\n% of control binding was calculated using geomean fluorescence as described in equation 1 where total binding was defined as reference antibody at 10 μg/mL and non-specific binding as mouse IgG1 antibody at 10 μg/mL. % receptor binding was calculated using Equation 3. […]", "data": [{"molecule": "B1", "values": [{"measurement": "FACS Binding", "value": "YES"}]}]}
